According to article PMC4336329 (PLoS ONE, 2015):
About 14,000 (4.5%) of roughly 310,000 compounds showed an effect of 50% or more. Effects have a minus sign here. This is one part of the list.

These compounds were tested against human ether-à-go-go-related gene (hERG) potassium channel (human, UniProt Q12809) (assay: primary screen, population patch clamp on CHO cells stably expressing hERG).
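Also: peak tail current of the secondary pulse compared with the same well before compound.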

human ether-à-go-go-related gene (hERG) potassium channel, sequence (Q12809 whole entry, looked up): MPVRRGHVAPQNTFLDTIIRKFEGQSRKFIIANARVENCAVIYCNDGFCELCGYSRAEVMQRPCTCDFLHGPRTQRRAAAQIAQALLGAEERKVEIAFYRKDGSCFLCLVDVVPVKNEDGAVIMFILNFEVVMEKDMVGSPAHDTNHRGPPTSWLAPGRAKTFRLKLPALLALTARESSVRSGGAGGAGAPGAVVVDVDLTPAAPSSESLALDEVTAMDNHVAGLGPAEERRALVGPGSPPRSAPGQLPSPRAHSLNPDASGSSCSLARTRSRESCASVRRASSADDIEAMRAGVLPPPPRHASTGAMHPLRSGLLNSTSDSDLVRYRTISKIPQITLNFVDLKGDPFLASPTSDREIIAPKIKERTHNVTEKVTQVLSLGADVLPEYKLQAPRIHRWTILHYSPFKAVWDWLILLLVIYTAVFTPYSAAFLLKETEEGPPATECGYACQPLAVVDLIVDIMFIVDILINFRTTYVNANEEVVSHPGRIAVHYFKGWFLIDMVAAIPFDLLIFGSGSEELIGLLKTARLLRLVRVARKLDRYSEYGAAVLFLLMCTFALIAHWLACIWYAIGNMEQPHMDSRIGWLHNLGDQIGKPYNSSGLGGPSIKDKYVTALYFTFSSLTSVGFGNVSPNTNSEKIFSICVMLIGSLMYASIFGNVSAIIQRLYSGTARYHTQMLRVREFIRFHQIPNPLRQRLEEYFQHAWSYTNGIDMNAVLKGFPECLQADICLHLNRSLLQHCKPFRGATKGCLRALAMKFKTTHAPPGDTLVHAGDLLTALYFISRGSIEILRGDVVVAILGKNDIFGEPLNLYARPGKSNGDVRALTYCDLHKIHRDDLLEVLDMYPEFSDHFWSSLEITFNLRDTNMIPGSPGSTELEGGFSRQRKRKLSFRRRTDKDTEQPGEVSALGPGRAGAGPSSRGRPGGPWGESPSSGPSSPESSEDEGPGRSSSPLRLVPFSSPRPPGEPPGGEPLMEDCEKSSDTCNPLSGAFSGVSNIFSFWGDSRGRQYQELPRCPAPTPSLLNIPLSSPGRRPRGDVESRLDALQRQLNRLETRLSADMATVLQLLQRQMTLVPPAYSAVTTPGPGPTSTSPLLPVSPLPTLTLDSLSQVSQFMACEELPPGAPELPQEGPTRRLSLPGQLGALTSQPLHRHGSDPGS

| SMILES | hERG current change (%, negative = inhibition) at 10uM |
| --- | --- |
| COc1cc(C(=O)OCCCc2cc3ccccc3c(=O)o2)cc(OC)c1OC | -13.7% |
| Cc1ccc(CNC(=O)CN2CCN(Cc3ccc(C)cc3)C2=O)cc1 | -26.5% |
| Cc1cc2ccc(C)c(C)c2nc1SCC#N | 6.95% |
| CCn1c(CNc2ccc(F)cc2)nnc1SCC(=O)Nc1ccccc1OC | -30.2% |
| Cc1ccc(NC(=O)COC(=O)Cc2cccs2)cc1S(=O)(=O)N1CCOCC1 | -23.5% |
| COc1ccc(CC(=O)n2nc(-c3ccccc3)nc2NCc2ccco2)cc1 | -19.7% |
| COc1ccc(-c2nc(CSCC(=O)NC3CCCC3)c(C)o2)cc1OC | -13.6% |
| O=[N+]([O-])c1cccc(-c2c[n+]3c(n2-c2ccccc2)SCC3)c1.[Br-] | -42.3% |
| Cc1ccc(NC(=O)c2ccc(C)c(NC3=NC4CS(=O)(=O)CC4S3)c2)cc1C (centres unmarked) | 3.9% |
| Nc1nc(-c2cccs2)c(NC(=O)c2ccccc2)s1 | 6.33% |
| COCCCNC(=O)/C(C#N)=C/c1c(N2CCN(c3ccccc3)CC2)nc2c(C)cccn2c1=O | -7.32% |
| Cc1cc(=O)oc2cc(OCC(=O)N3CCC(C(=O)O)(c4ccccc4)CC3)ccc12 | 8.8% |
| O=C(CN1C(=O)C2CCCCC2C1=O)OCn1nnc2ccccc2c1=O (centres unmarked) | 5.19% |
| CC(=O)c1c(C)[nH]c(C(=O)NCCC2=CCCCC2)c1C | 4.77% |
| O=C(NCc1ccccn1)c1nnc(Cc2ccc(Cl)cc2)o1 | -6.71% |
| COC(=O)c1cc(NC(=O)Cc2cccs2)cc(C(=O)OC)c1 | 21% |
| O=C(Cn1cnc2c(cnn2-c2ccccc2)c1=O)N1CCOCC1 | 5.88% |
| NC(=O)Cn1cnc2c(nnn2-c2cccc(Cl)c2)c1=O | 7.1% |
| COc1cc(/C=C2\C(=O)NC(=O)N(c3ccccc3)C2=O)cc(OC)c1O | 0.633% |

| SMILES | hERG current change (%, negative = inhibition) at 10uM |
| --- | --- |
| Cc1cc(=O)c(C(=O)O)cn1Nc1ccc(Cl)cc1 | 7.39% |
| O=C(N1CCCCC1)N1CCC(c2nc3ccccc3[nH]2)CC1 | -2.64% |
| COc1ccccc1NC(=O)c1sc(NC(=O)c2ccco2)c(C#N)c1C | 17.7% |
| C/C(=N\NC(=O)c1nnn(-c2nonc2N)c1CN(C)c1ccccc1)c1ccccn1 | 24.5% |
| COc1ccc(CCNC(=O)C(=O)NCC2OCCN2S(=O)(=O)c2cc(F)ccc2F)cc1OC (centres unmarked) | -2.83% |
| CCc1nnc(NC(=O)c2ccc(OC)c(S(=O)(=O)N3CCCC3)c2)s1 | -14.1% |
| CCCCCCCC(=O)Nc1cc(C(=O)NCCC)ccc1N1CCC2(CC1)CC(c1cccc(Br)c1)=NO2 | 18% |
| O=C(NCCO)c1cccc(Cl)c1 | 18.8% |
| COc1ccc2c(c1OC)C(=O)N(c1ccc(OCc3ccccc3)cc1)C2=O | 17.3% |
| CCn1c(Cc2ccc(OC)cc2)nnc1SCC(=O)Nc1ccc(N2CCOCC2)cc1 | -4.99% |
| Cc1c(-c2cc(C(=O)O)c3ccccc3n2)cnn1C | 8.52% |
| CC1(c2nnc(-c3ccc(F)cc3)o2)CC(c2ccc(F)cc2)=NO1 (centres unmarked) | -8.82% |
| CC(OC(=O)C1CCCCC1)C(=O)Nc1ccc(S(N)(=O)=O)cc1 (centres unmarked) | -7.15% |
| Cc1ccc(Cn2cccc(NC(=O)NC3CCCCC3)c2=O)cc1 | -1.87% |
| CCn1c(=O)c2cc(S(=O)(=O)NCCOc3ccccc3)ccc2n(CC)c1=O | 7.08% |
| Cc1cc(-n2c(C)cc(C(=O)CSc3nnnn3-c3ccccc3)c2C)no1 | -21.3% |
| CCCCc1oc2c(c(=O)c1C)C(=O)CC(c1ccccc1)C2 (centres unmarked) | -59.8% |
| Cc1nn(C(C)C(=O)NCc2ccc(Cl)cc2)c(=O)c2cc3occc3n12 (centres unmarked) | 2.59% |
| Cc1nc(NC(=O)c2csc3ccccc23)sc1C | -3.35% |

| SMILES | hERG current change (%, negative = inhibition) at 10uM |
| --- | --- |
| CN1C(=S)SC(N(O)C=C2C=CC(=O)C=C2)C1(C)C (centres unmarked) | 12.3% |
| COc1cc2c(cc1OC)C(C(=O)Nc1ccc(F)c(Cl)c1)CC(=O)N2 (centres unmarked) | 15.3% |
| Cc1cc(NC(=O)CCC(=O)N(Cc2cccs2)C(C(=O)NC2CCCC2)c2cccnc2)no1 (centres unmarked) | 8.58% |
| COc1ccc[nH]c1=O | -23.5% |
| CC(=O)N[C@@H](C)C(=O)N1CCN(S(=O)(=O)c2ccc(Cl)cc2)CC1 | -8.67% |
| CCCC(=O)Nc1ccccc1N1CCN(C(=O)c2ccccc2)CC1 | -46% |
| COC(=O)C1C2C=CC3(CN(CC4CCCO4)C(=O)C13)O2 (centres unmarked) | 23% |
| Cc1ccnc(NC2(C(F)(F)F)N=C(c3ccccc3)NC2=O)c1 (centres unmarked) | 7.41% |
| CCOC(=O)NC(=O)/C(C#N)=C\c1ccccc1 | 13.4% |
| O=C(COc1ccc2c(c1)CCC2)NCc1ccc(Cl)cc1 | 14.5% |
| O=S(=O)(c1ccc(Cl)cc1)c1nc(-c2ccccc2F)oc1NCCN1CCOCC1 | -67% |
| CCOC(=O)c1cc2c(=O)n3ccccc3nc2n(C(C)C)c1=NC(=O)c1c(-c2ccccc2Cl)noc1C | 24.3% |
| CCn1nnc(NC(=O)c2ccc([N+](=O)[O-])o2)n1 | 6.65% |
| COc1ccc(OC)c(S(=O)(=O)Nc2ccc3c(c2)n(C)c(=O)n3C)c1 | 1.61% |
| Cc1cc(NC(=O)CCC(=O)N(CC(=O)NC2CCCC2)c2ccc(Cl)cc2)no1 | -16.7% |
| CC(C)(C)NC(=O)CSc1nc2cccnc2n1C1CCCCC1 | -2.41% |
| CC/C(O)=C(\C#N)c1nnc2n1CCCCC2 | 18.5% |
| C/C(=C\C#N)n1nc(C)cc1N | 14.7% |
